Data on 59 compounds can be found in PubChem BioAssay AID1508623 (National Center for Advancing Translational Sciences (NCATS), 2021).

Among all 48,000 compounds or so, about 450 (0.94%) were called active. Roughly 19% stayed inconclusive and do not appear here. The call rests on the fitted dose curve; in most records, active means well fitted inhibition curve with a large enough effect; inconclusive means small, poorly fitted or top-dose-only effect; inactive means no such curve, though single readings can be large or run the other way. The list shows a part of the results.

The experiment is described as follows: Primary qHTS for Identification of Small Molecule Inhibitors of Huntingtin Promoter Activity. Further: nearly all actives have a fitted effect of over 50% in size. The following applies: HEK293 HTT promoter firefly luciferase reporter (activity 0% = vehicle and -100% = no light), 24 h; series mostly up to 57.5 µM; activity change, negative = inhibition: at the top concentration. Summed up: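 HEK293 luciferase promoter-reporter cells (2,500/well) plated 24 h, then compounds added at up to 57.5 uM final for 24 h at 37 °C. Firefly luminescence by Dual-Glo, normalized to vehicle (0%) and zero RLU (-100%).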
In the case of `O=C(Cn1c(=O)nc(-c2ccccc2F)c2cc(Cl)ccc21)Nc1ccccc1C(F)(F)F`, the “activity change, negative = inhibition” value was inactive: 24.9%.
As for `Cc1ccc(-c2nc3nc(C)cc(N4CCN(c5cccc(C)c5)C(C)C4)n3n2)cc1` (centres undefined), the “activity change, negative = inhibition” value is inactive: 5.58%.
Next, `Cc1ccc(NC(=O)C2CCCN(S(=O)(=O)c3ccc4[nH]c(=O)ccc4c3)C2)cc1C` (centres undefined): inactive: -5.23%; `CCCCN(C)CCCNC(=O)CN1C(=O)CSc2ccc(S(=O)(=O)N3CCOCC3)cc21`: inactive: -1.57%; `COc1cccc(C(=O)Nc2nc3nc(C)c(C)c(=O)n3[nH]2)c1`: inactive: -11.3%.
Then `CCn1cc(C(=O)N2CCN(c3ccccc3)CC2)c(=O)c2cc(S(=O)(=O)N3CCCC3)ccc21`, with inactive: 14.8% [at 11.5 µM]; and `CCc1ccccc1NC(=O)Cc1cn(C)c2ccccc12`, with inactive: -9.53%.
Next, `O=C(Nc1c(O)c2ccccc2oc1=O)c1cccc(F)c1`: inactive: -16.5%.
Take `Cc1ccc(Nc2ncnc3onc(C)c23)cc1Cl`: the “activity change, negative = inhibition” value was inactive: -18.7%.
Next, `CCOc1ccc(S(=O)(=O)Nc2cccc(C)c2)c2cccnc12`: inactive: -23.7%.
Then `Cc1cc(C)cc(NC(=O)c2ccc3c(O)c(S(=O)(=O)c4ccccc4)c(=O)[nH]c3c2)c1`, with inactive: -1.24%.
Then `COc1cc(Cl)c(C)cc1NC(=O)c1ccc(CN2C(=O)CCn3nc(C)cc32)cc1`, with inactive: -20.9%; and `Cc1c(Cl)cccc1NC(=O)CSc1ncc(S(=O)(=O)c2ccc(C(C)C)cc2)c(=O)[nH]1`, with inactive: -9.71%; and `CCC1(c2cnc[nH]2)Cc2ccccc2C1`, with inactive: -5.39%.
Regarding `CCCCOC(=O)c1ccc(NC(=O)Cc2coc3c(C)c(C)ccc23)cc1`, the “activity change, negative = inhibition” value was inactive: -44.4%.
Turning to `COC(=O)c1ccccc1NC(=O)C1(c2cccs2)CCOCC1`, the “activity change, negative = inhibition” value was inactive: -7.19%.
For `CCOC(=O)c1c(C)[nH]c(C)c1S(=O)(=O)N1CCCC(C(=O)Nc2ccc(C)c(N(C)C)c2)C1` (centres undefined), the “activity change, negative = inhibition” value is inactive: -22.7%.
On to `CCOC(=O)c1[nH]c(C)c(CCC(=O)NCc2cccc(C)c2)c1C`, for which the “activity change, negative = inhibition” value is inactive: -3.21%.
Next, `Cc1ccc(OCC(=O)N(Cc2ccco2)c2ccccn2)cc1`: inactive: -0.496%; `CCNC(=O)C1CCCN(c2nnc(C)c3c(C)n(-c4ccc(C)cc4)nc23)C1` (centres undefined): inactive: 0.357%.
Take `Oc1c(C(c2ccccc2Cl)N2CCOCC2)sc2nc(-c3ccco3)nn12` (centres undefined): the “activity change, negative = inhibition” value was inactive: -15.8%.
Take `CCC(=O)N1CCc2cc(CNC(=O)Nc3cc(C)ccc3C)ccc21`: the “activity change, negative = inhibition” value was inactive: -22.9%.
Take `Cc1cccc(CNC(=O)CN2C(=O)C3CCCCN3c3ccc(C(=O)N4CCCC4)cc32)c1` (centres undefined): the “activity change, negative = inhibition” value is inactive: -4.86%.
Then `Cc1ccc(-c2nnc(Nc3ccc(Cl)c(Cl)c3)c3ccccc23)cc1S(=O)(=O)N(C)C`, with inactive: -23.4%.
Then `Cc1ccc(C(=O)N2CCN(c3ccc(F)cc3)CC2)cc1NC(=O)c1nsc2ccccc12`, with inactive: 16.4%; and `CC(=O)c1cccc(NC(=O)Cn2c(=O)oc3cc(S(=O)(=O)NC4CCCC4)ccc32)c1`, with inactive: -29.7%; and `CC(=O)c1ccc(Nc2nc3ccccc3nc2-n2nc(C)cc2C)cc1`, with inactive: -7.17%.
With `CC(=O)N1CCN(c2nc3c(C)ccc(Cl)c3s2)CC1`, the “activity change, negative = inhibition” value was inactive: -16.2%.
Next, `Cc1nc(-n2nc(C)c(Cc3ccc(Cl)cc3)c2C)sc1C(=O)N1CCCCC1C` (centres undefined): inactive: -4.17%; `Cc1ccc(C)c(Cn2c3ccccc3c3cnn(CC(=O)NCC(C)c4ccccc4)c(=O)c32)c1` (centres undefined): inactive: 8%; `O=C(CSCc1ccccc1Cl)NCc1ccc(Cl)c(Cl)c1`: inactive: -5.59%.
Next, `O=c1[nH]c2ccc(NCc3ccc(-c4ccc(Cl)cc4)o3)cc2[nH]1`: inactive: -28.4%; `CCOc1ccccc1Nc1nc(-c2ccc(C)cc2)c(CC(=O)O)s1`: inactive: -1.48%.
On to `COc1ccc(CN(C(=O)Nc2cccc(OC)c2)C2CCN(C(C)=O)CC2)cc1`, for which the “activity change, negative = inhibition” value was inactive: -19.2%.
Then `Cc1ccc(NC(=O)CN2C(=O)CC(c3ccc(F)cc3)=Nc3ccccc32)cc1F`, with inactive: -9.06%.
As for `COc1ccc(C2c3c(oc4ccc(Cl)cc4c3=O)C(=O)N2CCCN(C)C)cc1OC` (centres undefined), the “activity change, negative = inhibition” value was inactive: 10.9%.
Turning to `COc1cccc(CNC(=O)CN2C(=O)N(c3c(C)cccc3C)S(=O)(=O)c3ccccc32)c1OC`, the “activity change, negative = inhibition” value was inactive: -19.6%.
Then `CC[N+](C)(CC)CCOC(=O)C(O)(c1ccccc1)C1CCCCC1` (centres undefined), with inactive: 12.5%; and `CO[C@H]1C[C@@H]2CC[C@@H](C)[C@@](O)(O2)C(=O)C(=O)N2CCCC[C@@H]2C(=O)O[C@H]([C@@H](C)C[C@@H]2CC[C@H](O)[C@H](OC)C2)CC(=O)[C@H](C)C=C(C)[C@@H](O)[C@@H](OC)C(=O)[C@H](C)C[C@H](C)C=CC=CC=C1C`, with inactive: -5.04%; and `CCOc1ccc(NC(=O)Cn2nnc(C(=O)NCc3cccs3)c2N)cc1`, with inactive: -4.18%.
As for `COc1ccc(/C=C\c2onc(C)c2S(=O)(=O)N2CCC(C(=O)Nc3cccc(C)c3C)CC2)cc1`, the “activity change, negative = inhibition” value was inactive: -13%.
Turning to `Cc1ccc(-n2c(=O)c3c(cnn3C)n(CC(=O)Nc3cc(C)ccc3C)c2=O)cc1`, the “activity change, negative = inhibition” value is inactive: -2.62%.
Then `O=C1c2c(O)cccc2Cc2cccc(O)c21`, with inactive: 16.8%; and `Cc1ccc(C(=O)c2cn(Cc3cccc(F)c3)c3nc(C)ccc3c2=O)cc1`, with inactive: -20.4%; and `COc1ccc(C(=O)NCc2ccc3c(c2)CCN3C(=O)c2cccc(C)c2)cc1OC`, with inactive: -14.2%.
Next, `Cc1oc2ncnc(N3CCOCC3)c2c1C(=O)NCc1ccccc1`: inactive: -7.64%.
Turning to `COc1ccc(CCNC(=O)CSc2nc3ccccc3nc2Cc2ccc(Cl)cc2)cc1OC`, the “activity change, negative = inhibition” value was inactive: -8.13%.
Regarding `Cc1nc2sccn2c(=O)c1S(=O)(=O)N1CCN(c2ccc(F)cc2)CC1`, the “activity change, negative = inhibition” value was inactive: -9.93%.
Next, `Cc1cccc(NS(=O)(=O)c2ccc(Cl)c(C(=O)Nc3ccccc3C)c2)c1`: inactive: -32.6%; `CCCN(Cc1cccs1)C(=O)Nc1ccc(Br)c(C)c1`: inactive: 28%.
Then `CCCCOc1ccccc1NC(=O)Cn1c(-c2cncs2)nc2ccccc21`, with inactive: -16%; and `O=C(NC1CC(=O)N(c2ccccc2)C1)c1cc2ccccc2o1` (centres undefined), with inactive: -23%.
For `Cc1oc(-c2ccccc2)nc1CNS(=O)(=O)c1ccc(Cl)cc1`, the “activity change, negative = inhibition” value is inactive: -3.13%.
As to `CC=C(C)C(=O)O[C@H]1C(C)=C[C@]23C(=O)[C@@H](C=C(CO)[C@@H](O)[C@]12O)[C@H]1[C@@H](C[C@H]3C)C1(C)C`, the “activity change, negative = inhibition” value was inactive: -10.5%.
Then `CN1CCN(Cc2c(O)ccc3cc(-c4ccccc4)c(=O)oc23)CC1`, with inactive: -4.81%; and `CCOc1ccc(-c2cc(C(=O)NCc3ccc(OC)cc3)c3c(-c4ccc(F)cc4)[nH]nc3n2)cc1`, with inactive: -12.4%.
As for `Cc1cccc(-c2nc(N3CCN(c4ccc(F)cc4)CC3)c3ccccc3n2)c1`, the “activity change, negative = inhibition” value is inactive: -0.7%.
Next, `COc1ccc(Nc2nc3c(S(=O)(=O)c4ccccc4)nnn3c3ccc(Cl)cc23)cc1OC`: inactive: -16.9%; `CCOC(=O)c1cccc(NC(=O)c2cc3c(=O)n(Cc4cccnc4)ccc3nc2C)c1`: inactive: -6.65%.
